Hit rate of the full screen: of about 200,000 compounds, about 4,500 (2.2%) were called active. Inconclusive results, whose numbers are uncertain, are shown with a selection of clear calls. Calls come from the whole dose curve; as a rule, active = well fitted inhibition curve with a large enough effect; inconclusive = small, poorly fitted or top-dose-only effect, or effect the other way; inactive = flat fitted curve, though single readings scatter. Where the call is inconclusive, the potency comes from a doubtful curve fit.
biological target: Cruzipain (Trypanosoma cruzi) (UniProt P25779); assay: qHTS Assay for Promiscuous and Specific Inhibitors of Cruzain (without detergent); conditions: purified cruzain, Z-FR-AMC fluorescence, no detergent; note: nearly all actives have a fitted effect of over 40% in size;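 for max response, negative = inhibition: plate controls were enzyme without inhibitor for no effect and buffer without enzyme for full effect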
Sequence of UniProt P25779 (P25779 whole entry, looked up): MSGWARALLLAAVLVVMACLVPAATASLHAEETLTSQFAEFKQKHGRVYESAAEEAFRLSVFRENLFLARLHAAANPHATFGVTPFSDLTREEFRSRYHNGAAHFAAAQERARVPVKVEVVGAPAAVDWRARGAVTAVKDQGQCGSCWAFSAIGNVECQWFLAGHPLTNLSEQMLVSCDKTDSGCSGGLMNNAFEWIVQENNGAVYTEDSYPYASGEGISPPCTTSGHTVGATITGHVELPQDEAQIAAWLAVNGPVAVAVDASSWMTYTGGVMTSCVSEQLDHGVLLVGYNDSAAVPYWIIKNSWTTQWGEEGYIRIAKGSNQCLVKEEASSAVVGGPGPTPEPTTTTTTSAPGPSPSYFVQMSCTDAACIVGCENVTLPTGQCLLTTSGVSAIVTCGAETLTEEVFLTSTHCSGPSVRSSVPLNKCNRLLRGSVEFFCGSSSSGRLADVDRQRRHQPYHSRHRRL
Procedure, shortened: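 Purified cruzain at 1.5 nM, pre-incubated 15 min with compound at room temperature in 100 mM sodium acetate pH 5.5, 5 mM DTT, 0.00005% Triton X-100. Reaction started with 2 uM Z-FR-AMC; AMC fluorescence increase over 60 s gives rate.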
Potency is the fitted concentration of half-maximal effect; tags give direction and shape of the fitted curve.

SMILES | max response, negative = inhibition | Potency
C[C@H](NC[C@H](O)CP(=O)(O)Cc1ccccc1)c1ccc(Cl)c(Cl)c1 | inactive: 12.3% | –
O=C(O)c1ccc(C(=O)O)c(C(=O)c2ccccc2)c1 | inactive: -7.62% | –
COc1ccccc1OCC(=O)Nc1cc(-c2ccc(C)cc2)no1 | inactive: -6.49% | –
CCCCn1c(CCNC(=O)c2cccs2)nc2ccccc21 | – | active: 10 µM
COc1ccc(NC(=O)CSc2nnc(Cc3cccn3C)n2-c2ccc(F)cc2)cc1OC | – | inconclusive: 39.8 µM [activator, single point]
CCOC(=O)N1CCC(N2Cc3cccc(C(=O)Nc4cc(F)ccc4F)c3C2=O)CC1 | – | inconclusive: 31.6 µM [activator, single point]
Oc1c(C(c2ccc(Cl)cc2)N2CCOCC2)sc2nc(-c3ccco3)nn12 (stereo unspecified) | – | inconclusive: 39.8 µM [activator, single point]
CCOC(=O)N1CCN(C(=O)c2cnn(-c3cccc(F)c3)c2-n2cccc2)CC1 | inactive: 29.7% | –
Cc1cc(CSc2ccccc2)ccc1NC(=O)c1ccc(Cl)c([N+](=O)[O-])c1 | – | inconclusive: 39.8 µM [inhibitor, single point]
COc1cccc(CNC(=O)c2ccc(CS(=O)c3ccccc3)o2)c1 (stereo unspecified) | – | inconclusive: 31.6 µM [inhibitor, single point]
Cc1cc(S(=O)(=O)NCc2ccccc2)ccc1OCC(=O)Nc1cccc([N+](=O)[O-])c1 | – | active: 25.1 µM
COc1ccc(CCNC(=O)Cn2c(-c3cccs3)cc3cc(F)ccc32)cc1OC | – | inconclusive: 15.8 µM [activator, partial curve, poor fit]
COc1ccc(C2=C(N3CCN(c4cc(Cl)ccc4C)CC3)c3ccccc3C2=O)cc1 | – | inconclusive: 3.98 µM [inhibitor, partial curve]
O=C(Oc1nsnc1N1CCOCC1)N(c1ccccc1)c1ccccc1 | inactive: 1.94% | –
CCOP(=O)(OCC)C(NCc1ccccc1)c1ccc(Br)cc1 (stereo unspecified) | – | inconclusive: 31.6 µM [activator, single point]
CCC(C)NC(=S)N(CCc1ccccc1)Cc1cc2cc(OC)c(OC)cc2[nH]c1=O (stereo unspecified) | – | inconclusive: 20 µM [activator, single point]
CCc1ccc(OCCCN=C(C)c2c(O)n(C)c(=O)n(C)c2=O)cc1 | – | inconclusive: 31.6 µM [activator, single point]
CCOC(=O)c1cc2c(ccn2C)n1Cc1cc(C)ccc1C | inactive: -5.88% | –
COC(=O)CCc1c(C)c(C#N)c2nc3ccccc3n2c1N1CCCC1 | – | inconclusive: 39.8 µM [inhibitor, single point]
Cc1nn(C)c2c1c(-c1ccccc1)cc(=O)n2CC(=O)NC(C)(C)C | – | inconclusive: 39.8 µM [activator, single point]
CCOC(=O)c1ccccc1NC(=O)CSc1ncc2c(n1)-c1ccccc1N(CC)S2(=O)=O | inactive: -27.3% | –
Cc1nc2cnc(N3CCOCC3)nc2n(Cc2cccs2)c1=O | inactive: -6.54% | –

SMILES | max response, negative = inhibition | Potency
Cc1ccc(NC(=O)Cn2c(=O)nc(-c3ccccc3F)c3cc(Cl)ccc32)c(Br)c1 | inactive: 13.2% | –
COc1cc(C(=O)Nc2sc3c(c2C(=O)NCc2ccco2)CCCC3)cc(OC)c1OC | – | inconclusive: 39.8 µM [activator, single point]
Cc1ccc2cccc(NC(=S)NC(=O)c3c(Br)cnn3C)c2n1 | – | inconclusive: 39.8 µM [inhibitor, single point]
CC(C)(C)c1ccc(OCC(=O)Nc2c(C(=O)c3ccc(F)cc3)oc3ccccc23)cc1 | inactive: 4.38% | –
Cc1ccc(-c2cc(C(=O)N(C)Cc3cnn(C)c3C)c3cc(Br)ccc3n2)cc1 | – | inconclusive: 39.8 µM [activator, single point]
O=C(Nc1ncc(Cc2ccc(SC(F)F)cc2)s1)c1ccc(OC(F)F)cc1 | – | active: 20 µM
COc1cccc(Cn2cnc3c(NS(=O)(=O)c4ccc(Cl)cc4)c(C)c(C)cc32)c1 | – | inconclusive: 39.8 µM [inhibitor, single point]
Cc1ccccc1OCC(=O)Nc1ccc(N2CCN(S(C)(=O)=O)CC2)cc1 | – | inconclusive: 39.8 µM [inhibitor, single point]
O=c1c2ccccc2c(C=Nc2cccc(S(=O)(=O)NCc3ccco3)c2)c(O)n1-c1ccc(Cl)cn1 | – | inconclusive: 39.8 µM [inhibitor, single point]
CCN(CC)c1ccc(N2C(=O)c3ccccc3C2=O)cc1 | – | inconclusive: 25.1 µM [inhibitor, single point]
CCOC(=O)c1cnc(-n2nc(C)cc2C)nc1NC(C)c1ccccc1 (stereo unspecified) | – | inconclusive: 25.1 µM [activator, single point]
C=CCSc1nc2sc(-c3ccccc3)cc2c(=O)n1N | – | active: 31.6 µM
Cc1cc(NC(=O)COC(=O)C(Cc2ccccc2)NC(=O)c2ccco2)no1 (stereo unspecified) | – | active: 25.1 µM
CSc1cccc(NC(=O)c2ccc3c(c2)c(C)c(C)n3Cc2ccc(F)cc2)c1 | – | active: 15.8 µM
Cc1ccc2nc(/C(C#N)=C/c3ccc(-c4ccc(F)cc4F)o3)[nH]c2c1 | – | active: 10 µM
O=C(c1ccc2c(=O)n3c(nc2c1)CCCCC3)N1CCN(C(c2ccccc2)c2ccccc2)CC1 | – | inconclusive: 39.8 µM [activator, single point]
O=C(Nc1ccccc1C(=O)OCc1cc(=O)n2ccsc2n1)c1cccc(F)c1 | inactive: 9.58% | –
COc1ccc2[nH]c(=O)c(CN(Cc3ccccc3OC)Cc3nnnn3CC3CCCO3)cc2c1 (stereo unspecified) | – | inconclusive: 31.6 µM [activator, single point]
Fc1ccc(C2=NC(c3cccc(C(F)(F)F)c3)=Nc3ccccc3N2)cc1 | – | inconclusive: 39.8 µM [inhibitor, single point]
Cc1ccsc1C1Nc2ccccc2-c2nc3ccccc3n21 (stereo unspecified) | – | inconclusive: 25.1 µM [activator, single point]
Cc1ccc(Cl)cc1NC(=O)C1CCCN(S(=O)(=O)c2c(C)noc2/C=C/N(C)C)C1 (stereo unspecified) | inactive: 7.21% | –
CCC(C)(c1ccc(C=O)s1)c1ccc(C=O)s1 | – | inconclusive: 0.316 µM [inhibitor, full curve, poor fit]

SMILES | max response, negative = inhibition | Potency
COc1cc([C@H]2c3[nH]c4ccccc4c3C[C@H]3C(=O)N4[C@@H](c5cc(OC)c(OC)c(OC)c5)c5[nH]c6ccccc6c5C[C@H]4C(=O)N23)cc(OC)c1OC | inactive: 4.68% | –
CCOC(=O)N1CCN(C(=O)c2cnn3c(C)c(Cc4ccc(C)cc4)c(C)nc23)CC1 | – | inconclusive: 25.1 µM [activator, single point]
CCc1ccc2c(c1)c(=O)c(C(=O)c1ccc(C)cc1)cn2CC(=O)Nc1ccc2c(c1)OCCO2 | inactive: -1.22% | –
CCn1c(CNc2ccc(F)cc2)nnc1SCC(=O)Nc1ccc(OC)cc1OC | – | inconclusive: 39.8 µM [activator, single point]
O=C(NCCc1ccccc1)c1cc(-c2ccccc2)nc2n[nH]c(-c3ccccc3)c12 | – | inconclusive: 39.8 µM [inhibitor, single point]
C=C(CO)C1Cc2c(ccc3c2OC2COc4cc(OC)c(OC)cc4C2C3=O)O1 (stereo unspecified) | – | inconclusive: 39.8 µM [activator, single point]
Cc1ccc(-c2cc(C(=O)NCCc3ccccc3)c3ccccc3n2)cc1C | inactive: 15.3% | –
c1ccc(CN2CC[C@@H](CNc3ncnc4ccccc34)C2)cc1 | inactive: -7.54% | –
O=C(Nc1cc(S(=O)(=O)Nc2ccc(Cl)cc2)ccc1N1CCCCC1)c1ccc(F)cc1Cl | – | inconclusive: 31.6 µM [inhibitor, single point]
O=C(c1ccc(CSc2nc3ccncc3n2Cc2ccccc2F)cc1)N1CCCCC1 | inactive: -0.977% | –
Cc1c(CCC(=O)NCCc2ccccc2F)c(=O)oc2cc(O)ccc12 | – | inconclusive: 3.98 µM [activator, single point]
COC(=O)[C@@H](NC(=O)O[C@@H]1C(=O)c2ccc(OC)cc2O[C@H]1c1ccc2c(c1)OCO2)C(C)C | inactive: 11.7% | –
O=C(Oc1ccccc1)N1CCC2(CCCN(c3ncccn3)C2)CC1 | inactive: -3% | –
Cc1ccc2c(c1)cc1c(=O)n(CC(=O)NCc3ccco3)nc(C)n12 | inactive: -8.64% | –
CC(C)(C)c1ccc(OCC(=O)N(Cc2ccco2)Cc2ccccc2F)cc1 | – | inconclusive: 39.8 µM [inhibitor, single point]
Cc1ccc(N(C(=O)Cn2nnc(-c3ccc(F)cc3)n2)C(CC(C)C)C(=O)NCC2CCCO2)cc1 (stereo unspecified) | – | inconclusive: 20 µM [activator, partial curve]
COc1ccc(OC)c(C2C(C(N)=O)=C(C)Nc3nc(-c4cccc(Cl)c4)nn32)c1 (stereo unspecified) | – | inconclusive: 31.6 µM [activator, single point]
Cc1cccn2c(=O)c3cc(C(=O)NCCc4ccc(S(N)(=O)=O)cc4)n(C)c3nc12 | – | inconclusive: 31.6 µM [inhibitor, single point]
CCCC(=O)Oc1c(Sc2ccc(Cl)cc2)c(C)nn1-c1ccccc1 | inactive: 2.37% | –
CC(C)(C)C(=O)[C@H](C(c1ccccc1)N1CCOCC1)N1CCOCC1 (stereo partly specified) | inactive: 2.5% | –
Cc1ccc(CN2C(=O)c3ccccc3S(=O)(=O)c3ccc(C(=O)OCC4CCCO4)cc32)cc1 (stereo unspecified) | inactive: -18.3% | –
CN1CCN(c2ncc3nc(-c4ccc(Cl)cc4)c(=O)n(CCC#N)c3n2)CC1 | – | inconclusive: 7.94 µM [activator, single point]

Reference: PubChem BioAssay AID1476 (National Center for Advancing Translational Sciences (NCATS), 2009)
